Assay results taken from patent publication US20230213525A1, “DETECTING MICROBIAL INFECTION IN WOUNDS” (QUALIZYME DIAGNOSTICS GMBH & CO KG, priority 2016, published 2023).

System: Cathepsin
Settings: Whatman filter paper, 210 minutes
Protocol: The final concentration of N-methoxysuccinyl-ala-ala-pro-phe-p- nitroanilide can be between 0.5 to 10 mM, and is preferentially 5.00 mM. 10 µL of this solution were pipetted onto Whatman filter paper.

**Q.** What does the source list for “N-methoxysuccinyl-ala-ala-pro-phe-p-nitroanilide”?
**A.** Test response (infected sputum samples A, B): yellow; Test response (non-infected sputum samples C, D): No colour change

Read-outs that look alike come from different tables or passages of the source.
